This note sets out measurements from paper PMC12528421 (Nature Communications, 2025).

In this assay the target is T1, Flag-AS160 (human, UniProt O60343-1 1-1298).
T1 sequence (looked up): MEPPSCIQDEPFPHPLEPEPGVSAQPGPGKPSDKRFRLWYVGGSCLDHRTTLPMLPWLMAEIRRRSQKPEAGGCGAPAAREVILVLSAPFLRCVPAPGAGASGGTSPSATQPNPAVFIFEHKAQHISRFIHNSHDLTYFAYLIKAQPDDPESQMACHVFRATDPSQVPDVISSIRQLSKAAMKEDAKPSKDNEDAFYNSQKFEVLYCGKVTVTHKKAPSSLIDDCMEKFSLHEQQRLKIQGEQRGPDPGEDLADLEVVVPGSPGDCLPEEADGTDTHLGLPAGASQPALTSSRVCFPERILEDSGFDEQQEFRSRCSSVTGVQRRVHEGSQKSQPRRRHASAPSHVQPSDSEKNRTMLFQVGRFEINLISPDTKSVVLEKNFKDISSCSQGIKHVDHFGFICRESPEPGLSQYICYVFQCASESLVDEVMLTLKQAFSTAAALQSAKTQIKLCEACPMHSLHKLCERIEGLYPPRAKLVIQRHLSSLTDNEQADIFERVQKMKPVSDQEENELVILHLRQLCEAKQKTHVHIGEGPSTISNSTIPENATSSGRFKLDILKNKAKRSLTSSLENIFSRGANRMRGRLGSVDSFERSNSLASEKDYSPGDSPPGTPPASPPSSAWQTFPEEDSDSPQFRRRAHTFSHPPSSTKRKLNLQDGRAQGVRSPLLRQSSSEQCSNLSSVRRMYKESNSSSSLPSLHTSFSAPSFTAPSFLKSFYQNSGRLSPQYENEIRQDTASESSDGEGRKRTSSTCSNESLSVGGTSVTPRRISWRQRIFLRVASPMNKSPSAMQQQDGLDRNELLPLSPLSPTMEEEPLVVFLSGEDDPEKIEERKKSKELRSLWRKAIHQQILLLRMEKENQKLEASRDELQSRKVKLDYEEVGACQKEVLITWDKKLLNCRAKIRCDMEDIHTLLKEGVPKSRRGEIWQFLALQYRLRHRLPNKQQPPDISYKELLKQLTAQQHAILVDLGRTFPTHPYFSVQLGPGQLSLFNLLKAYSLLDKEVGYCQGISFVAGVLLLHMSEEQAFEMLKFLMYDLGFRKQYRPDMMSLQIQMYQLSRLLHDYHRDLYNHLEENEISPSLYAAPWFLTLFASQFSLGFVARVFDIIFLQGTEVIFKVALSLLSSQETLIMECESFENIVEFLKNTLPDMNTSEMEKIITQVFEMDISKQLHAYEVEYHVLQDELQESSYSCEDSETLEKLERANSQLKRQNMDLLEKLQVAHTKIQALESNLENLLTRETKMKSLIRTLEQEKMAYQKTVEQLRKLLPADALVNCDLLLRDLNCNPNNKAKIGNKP
The assay can be described thus: pull-down.

B1: GST-STAT3 (natural protein)
chain: not shown
In the case of B1, the binding result was “binds”.
